Key:
Details in all cases: 72 h
[1] = test system: Caco-2; assay: cell viability relative to DMSO; higher = less toxic
[2] = test system: Calu-3; assay: as above
[3] = test system: HepG2; assay: as above
[4] = test system: U2OS; assay: as above
[5] = test system: Vero E6; assay: as above
[6] = test system: HepG2; assay: relative viability EC50 (midpoint between 100% and the lowest measured viability); higher = less toxic
[7] = test system: Caco-2; assay: drug sensitivity score (DSS) for viability; higher = more toxic; extreme values may be limits of the assay
[8] = test system: Calu-3; assay: as above
[9] = test system: HepG2; assay: as above
[10] = test system: U2OS; assay: as above
[11] = test system: Vero E6; assay: as above

Cc1ccc(C(=O)NCCCCCC(=O)Nc2ccccc2N)cc1 [RG2833]
cell viability ([1]; 1 nM): 96.5% | cell viability ([1]; 10 nM): 96.4% | cell viability ([1]; 100 nM): 101% | cell viability ([1]; 1000 nM): 105% | cell viability ([1]; 10000 nM): 65.8% | cell viability ([2]; 1 nM): 102% | cell viability ([2]; 10 nM): 105% | cell viability ([2]; 100 nM): 97.7% | cell viability ([2]; 1000 nM): 89.7% | cell viability ([2]; 10000 nM): 50.5% | cell viability ([3]; 1 nM): 98.3% | cell viability ([3]; 10 nM): 95.1% | cell viability ([3]; 100 nM): 90.5% | cell viability ([3]; 1000 nM): 85% | cell viability ([3]; 10000 nM): 43.2% | cell viability ([4]; 1 nM): 91.3% | cell viability ([4]; 10 nM): 100% | cell viability ([4]; 100 nM): 98.6% | cell viability ([4]; 1000 nM): 93.3% | cell viability ([4]; 10000 nM): 53.6% | cell viability ([5]; 1 nM): 101% | cell viability ([5]; 10 nM): 94.9% | cell viability ([5]; 100 nM): 91.8% | cell viability ([5]; 1000 nM): 91.3% | cell viability ([5]; 10000 nM): 63.4% | relative viability EC50 [6]: 1620 nM | drug sensitivity score [7]: 1.3 | drug sensitivity score [8]: 4.3 | drug sensitivity score [9]: 5 | drug sensitivity score [10]: 3.5 | drug sensitivity score [11]: 2.9

— the supplement of paper PMC13380429
